The other results are listed elsewhere or left out. Shown are side measurements of this screen, not its main read-out; they come without a call. Most of these compounds were active or inconclusive in the main read-out, so they are no random draw.

Among the data in PubChem BioAssay AID651582 (Sanford-Burnham Center for Chemical Genomics, 2012) are DAPI nuclei signal change (viability), lower = more cytotoxic values, retold here.

A short description of this test: inhibitors of triacylglycerol accumulation, primary screen, cell-based, uHTS, fluorescence, H9c2 (AID 651582). The conditions noted are these: H9c2 cells, Nile Red lipid (TAG) fluorescence; measured here:; at 12.5 µM; cells loaded with 200 µM oleic acid.
Turning to `CC(C)(C)OC(=O)N1CCN(c2ccc(NC(=O)Cn3nnc(-c4ccccc4)n3)cc2)CC1`, the DAPI nuclei signal change (viability), lower = more cytotoxic is -9.48%.

Consider `O=c1cc(-c2ccccc2)[nH]c2ccc(F)cc12`, for which the DAPI nuclei signal change (viability), lower = more cytotoxic was -43.4%. Regarding `Cc1cccc(N2CCN(C(=O)CCCn3c(=S)[nH]c4cc5c(cc4c3=O)OCO5)CC2)c1C`, the DAPI nuclei signal change (viability), lower = more cytotoxic was -3.89%. On to `CC(=O)Nc1ccc(-c2ccnc3c2CC(C(=O)NCc2cccc(Cl)c2)O3)cc1` (stereo not drawn), for which the DAPI nuclei signal change (viability), lower = more cytotoxic was -39.8%.

On to `COc1ccc(Cl)cc1NC(=O)CSc1nnc(COc2ccccc2)n1N`, for which the DAPI nuclei signal change (viability), lower = more cytotoxic is -5.51%. Regarding `CN(C)CCNC(=O)C(=O)Nc1ccc2c(c1)N(S(=O)(=O)c1cccs1)CCC2`, the DAPI nuclei signal change (viability), lower = more cytotoxic was -26.8%.

As for `COc1cc(C(=O)NC2CCN(C)CC2)ccc1Nc1ncc2c(n1)N(C1CCCC1)CCC(=O)N2C(C)C`, the DAPI nuclei signal change (viability), lower = more cytotoxic was -12.5%. As to `O=C(Nc1ccc2c(c1)OCCO2)c1cc2sccc2n1Cc1ccccc1`, the DAPI nuclei signal change (viability), lower = more cytotoxic was -10.6%. As to `CC(=O)Nc1sc2c(c1-c1nc3ccccc3s1)CCN(C(C)C)C2`, the DAPI nuclei signal change (viability), lower = more cytotoxic stood at 39.7%. The result for `CCOc1ccc(Nc2nc(N)nc(CCl)n2)cc1` reads -19%. For the compound `Clc1ccc(C2=Nn3c(nnc3-c3n[nH]c4c3CCC4)SC2)cc1`, the DAPI nuclei signal change (viability), lower = more cytotoxic was -14.9%. `CCN1CCN(Cc2ccc(NC(=O)c3cc(NC(=O)c4cncc(-c5cccs5)c4)cc(OC)c3)cc2C(F)(F)F)CC1`: the DAPI nuclei signal change (viability), lower = more cytotoxic was 20.3%. Turning to `c1ccc(Oc2nc(-c3ccccn3)nc3ccccc23)cc1`, the DAPI nuclei signal change (viability), lower = more cytotoxic is -44.2%. To `CCOC(=O)CSc1cccc2cccnc12` belongs -47.9%. With `CCO[C@@H]1OC(C(=O)NCc2nc3ccccc3[nH]2)=C[C@H](c2cn(C(C)=O)c3ccccc23)[C@H]1CCCO`, the DAPI nuclei signal change (viability), lower = more cytotoxic was -11.9%. As for `COc1ccc(CC(N)c2csc(NC(=O)c3cccc(OC(F)(F)F)c3)n2)cc1` (stereo not drawn), the DAPI nuclei signal change (viability), lower = more cytotoxic stood at 13.9%. Turning to `C/C(=N\Nc1nc2ccccc2nc1C)c1ccccc1O`, the DAPI nuclei signal change (viability), lower = more cytotoxic was -17%. For `N#C/C(=C\c1ccc(OC(F)F)cc1)C(=O)N1CCCCC1`, the DAPI nuclei signal change (viability), lower = more cytotoxic is -21.6%. `COc1cccc(Nc2nnc(SCc3cc([N+](=O)[O-])cc4c3OCOC4)s2)c1`: the DAPI nuclei signal change (viability), lower = more cytotoxic was -9.85%. With `COc1cc(OC)c2cc(C(=O)N/N=C/c3cccc(OC)c3O)[nH]c2c1`, the DAPI nuclei signal change (viability), lower = more cytotoxic was -16%.

As for `CCN(CC)CCCN(C(=O)c1cccs1)c1nc(-c2ccc(OC)cc2)cs1`, the DAPI nuclei signal change (viability), lower = more cytotoxic is 19.3%.

Turning to `CC(C)(C)c1ccc(Cn2c(=N)n(CC(O)c3ccco3)c3ccccc32)cc1` (stereo not drawn), the DAPI nuclei signal change (viability), lower = more cytotoxic is -24.8%.

Turning to `CCc1c(C2(O)CCCCC2)[nH]c2cnccc12`, the DAPI nuclei signal change (viability), lower = more cytotoxic is -6.55%. Consider `Cc1ccc2nc(NC(=O)CN(C)S(=O)(=O)c3cccc4nsnc34)sc2c1`, for which the DAPI nuclei signal change (viability), lower = more cytotoxic was -26.4%. With `COc1cccc(-c2nc(-c3ccc(NC(=O)Cc4ccccc4OC)cc3)no2)c1`, the DAPI nuclei signal change (viability), lower = more cytotoxic was -5%. Take `CCCCSc1nc2ccc(Nc3nc(N4CCOCC4)nc(N4CCOCC4)n3)cc2s1`: the DAPI nuclei signal change (viability), lower = more cytotoxic is 13.1%.

As to `C[C@H]1CN([C@@H](C)CO)C(=O)Cc2cc(NC(=O)CCC(F)(F)F)ccc2O[C@H]1CN(C)S(=O)(=O)c1ccc(Cl)cc1`, the DAPI nuclei signal change (viability), lower = more cytotoxic is -38.5%. `COc1cc2c(cc1OC)CN(C(=S)Nc1ccccc1Cl)CC2`: the DAPI nuclei signal change (viability), lower = more cytotoxic is -45.3%. To `CCCCCc1cc(=O)oc2c(C(CCN3CCN(c4ccccc4)CC3)c3ccc(N(C)C)cc3)c(OC)cc(OC)c12` (stereo not drawn) belongs -2.49%.

In the case of `COc1cc(-c2noc(C)c2C#Cc2ccccn2)cc(OC)c1OC`, the DAPI nuclei signal change (viability), lower = more cytotoxic is -34.5%. As for `C[C@H](O)[C@@H]1CN2CCc3c([nH]c4ccc(-c5ccc6c(c5)OCO6)cc34)[C@@H]2C[C@@H]1N(C)C(=O)Nc1ccc(F)cc1`, the DAPI nuclei signal change (viability), lower = more cytotoxic is -41.8%.

Take `Cc1cccc(NC(=O)C(C)Sc2nc3ccccc3c(=O)n2CCCN2CCOCC2)c1` (stereo not drawn): the DAPI nuclei signal change (viability), lower = more cytotoxic is -10.8%. Consider `Cn1nnnc1Sc1ncnc2scc(-c3ccc(Br)cc3)c12`, for which the DAPI nuclei signal change (viability), lower = more cytotoxic was -25%. `CCOc1ccc(OCC)c(NC(=O)CN(c2ccc(C)cc2)S(=O)(=O)c2c(C)noc2C)c1`: the DAPI nuclei signal change (viability), lower = more cytotoxic was -3.41%. To `COC(=O)c1ccc(/C=C/c2c(-c3ccsc3)oc3ccc(N4CCOCC4)cc23)cc1` belongs -5.05%. Take `COc1ccc(NC(=O)N(C)[C@H]2C[C@H]3c4[nH]c5ccc(-c6ccc7c(c6)OCO7)cc5c4CCN3C[C@H]2[C@H](C)O)cc1`: the DAPI nuclei signal change (viability), lower = more cytotoxic is -9.61%. To `COc1ccc(C[C@H]2CN3C(=NC[C@@H]3Cc3ccc(O)cc3)N2CCNC(=O)c2ccc(C)c(Br)c2)cc1` belongs -4.44%; to `COc1cccc(C2c3cc4c(cc3OC(NNC(N)=O)C2C)OCO4)c1O` (stereo not drawn), -34.3%.

For `CC1(C)CCCN(Cc2c(O)ccc3c(=O)c(-c4nc5ccccc5s4)c(N)oc23)C1`, the DAPI nuclei signal change (viability), lower = more cytotoxic was 27.9%. For the compound `COc1cc2ccccc2cc1C(=O)N/N=C/c1cccs1`, the DAPI nuclei signal change (viability), lower = more cytotoxic was -45.4%. Regarding `O=C(O)c1ccc(N/N=C/c2ccc(-c3ccccc3Cl)o2)cc1`, the DAPI nuclei signal change (viability), lower = more cytotoxic was 2.17%.

For the compound `COC(=O)[C@@]1(Cc2ccccc2)[C@H]2C(=O)N(Cc3ccccc3)C(=O)[C@H]2[C@H]2CN=C(SCc3ccc(Cl)cc3)N21`, the DAPI nuclei signal change (viability), lower = more cytotoxic worked out at 9.45%.

With `CC(CC(=O)Nc1ccc2c(c1)c(=O)n(C)n2-c1ccc2ccccc2c1)C(F)(F)F` (stereo not drawn), the DAPI nuclei signal change (viability), lower = more cytotoxic was -35.9%. The result for `O=C(Nc1ccc(-c2csc(Nc3cccc(C(F)(F)F)c3)n2)cc1)c1ccccc1` reads -4.93%; that for `CCOc1cc2[nH]c(=O)n(CCCCC(=O)N3CCCCCC3)c(=O)c2cc1OCC`, -6.76%; that for `O=c1cc(N2CCN(c3ccccc3)CC2)[nH]c(=O)n1C1CCCCC1`, -22.3%.

With `CCN(C(=O)COC(=O)c1ccc([N+](=O)[O-])o1)c1cccc2ccccc12`, the DAPI nuclei signal change (viability), lower = more cytotoxic is -49.6%. As to `CN(C)CC(C(=O)c1ccccc1)c1ccccc1` (stereo not drawn), the DAPI nuclei signal change (viability), lower = more cytotoxic is -38.4%.
